# ChEMBL document CHEMBL1961873, “Compounds: GSK PKIS; Assays: Nanosyn kinase panel” (2012)
# For some assays here: Shown are results outside the selection of strong results, which stands elsewhere. The list shows a part of the results, in another mix than the full data.
# Tests used:
# [1] = target: T1, Inhibitor of nuclear factor kappa-B kinase subunit epsilon (Homo sapiens) (UniProt Q14164); conditions: at 1 µM;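 also: reported values are averaged percent inhibition figures against human IKKε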
# T1 sequence (whole entry): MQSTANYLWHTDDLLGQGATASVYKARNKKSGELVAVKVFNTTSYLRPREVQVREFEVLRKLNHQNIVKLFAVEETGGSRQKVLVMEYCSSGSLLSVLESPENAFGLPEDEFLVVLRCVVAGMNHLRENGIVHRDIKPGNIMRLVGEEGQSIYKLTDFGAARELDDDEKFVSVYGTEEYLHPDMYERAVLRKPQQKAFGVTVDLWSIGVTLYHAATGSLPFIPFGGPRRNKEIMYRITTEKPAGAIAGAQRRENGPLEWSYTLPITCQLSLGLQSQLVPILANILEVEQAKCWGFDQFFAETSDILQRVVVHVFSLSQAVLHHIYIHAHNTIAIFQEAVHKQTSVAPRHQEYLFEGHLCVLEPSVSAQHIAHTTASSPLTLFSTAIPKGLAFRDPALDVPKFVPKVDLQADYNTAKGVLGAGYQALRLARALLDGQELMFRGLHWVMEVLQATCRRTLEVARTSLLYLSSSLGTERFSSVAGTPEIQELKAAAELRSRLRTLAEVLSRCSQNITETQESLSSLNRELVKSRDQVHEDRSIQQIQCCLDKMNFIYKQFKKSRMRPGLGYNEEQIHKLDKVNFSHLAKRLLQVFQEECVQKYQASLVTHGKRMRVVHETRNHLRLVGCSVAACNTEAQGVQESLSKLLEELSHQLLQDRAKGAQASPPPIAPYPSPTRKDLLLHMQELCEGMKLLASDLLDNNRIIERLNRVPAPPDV
# [2] = target: T2, Serine/threonine-protein kinase Nek1 (Homo sapiens) (UniProt Q96PY6); conditions: at 0.1 µM
# T2 sequence (whole entry): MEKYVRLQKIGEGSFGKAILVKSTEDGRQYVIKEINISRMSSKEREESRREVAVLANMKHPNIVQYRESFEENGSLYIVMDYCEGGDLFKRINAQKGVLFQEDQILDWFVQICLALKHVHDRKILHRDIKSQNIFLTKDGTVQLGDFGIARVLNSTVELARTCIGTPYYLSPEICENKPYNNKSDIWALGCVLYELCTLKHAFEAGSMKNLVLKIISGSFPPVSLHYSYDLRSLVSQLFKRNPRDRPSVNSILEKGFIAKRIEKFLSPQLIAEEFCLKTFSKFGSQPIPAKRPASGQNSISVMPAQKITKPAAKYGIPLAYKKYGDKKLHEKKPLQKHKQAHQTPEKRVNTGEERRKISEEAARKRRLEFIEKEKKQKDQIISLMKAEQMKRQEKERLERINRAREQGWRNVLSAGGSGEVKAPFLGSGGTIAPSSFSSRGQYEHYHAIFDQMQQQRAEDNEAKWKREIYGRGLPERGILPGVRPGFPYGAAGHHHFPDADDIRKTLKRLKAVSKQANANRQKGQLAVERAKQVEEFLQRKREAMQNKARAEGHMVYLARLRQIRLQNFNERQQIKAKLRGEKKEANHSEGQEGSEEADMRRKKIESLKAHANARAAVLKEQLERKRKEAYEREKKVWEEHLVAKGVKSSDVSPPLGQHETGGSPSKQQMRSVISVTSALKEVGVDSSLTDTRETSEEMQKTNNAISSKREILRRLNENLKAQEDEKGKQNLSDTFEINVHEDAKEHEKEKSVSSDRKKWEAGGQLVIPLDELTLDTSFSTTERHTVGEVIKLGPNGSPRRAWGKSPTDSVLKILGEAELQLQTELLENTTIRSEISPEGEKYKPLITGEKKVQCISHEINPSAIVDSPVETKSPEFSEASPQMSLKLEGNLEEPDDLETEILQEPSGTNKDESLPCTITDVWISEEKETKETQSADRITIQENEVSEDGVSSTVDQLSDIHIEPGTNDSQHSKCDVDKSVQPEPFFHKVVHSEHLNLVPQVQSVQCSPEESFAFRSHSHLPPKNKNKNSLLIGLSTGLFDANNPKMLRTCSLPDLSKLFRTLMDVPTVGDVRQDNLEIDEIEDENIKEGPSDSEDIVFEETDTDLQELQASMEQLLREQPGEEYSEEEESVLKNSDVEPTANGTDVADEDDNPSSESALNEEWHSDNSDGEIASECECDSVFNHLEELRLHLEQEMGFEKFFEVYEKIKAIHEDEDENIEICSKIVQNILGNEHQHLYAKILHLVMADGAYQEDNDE
# [3] = target: T2, Serine/threonine-protein kinase Nek1 (Homo sapiens); conditions: at 1 µM
# [4] = target: T3, Serine/threonine-protein kinase Nek2 (Homo sapiens) (UniProt P51955); conditions: at 0.1 µM
# T3 sequence (whole entry): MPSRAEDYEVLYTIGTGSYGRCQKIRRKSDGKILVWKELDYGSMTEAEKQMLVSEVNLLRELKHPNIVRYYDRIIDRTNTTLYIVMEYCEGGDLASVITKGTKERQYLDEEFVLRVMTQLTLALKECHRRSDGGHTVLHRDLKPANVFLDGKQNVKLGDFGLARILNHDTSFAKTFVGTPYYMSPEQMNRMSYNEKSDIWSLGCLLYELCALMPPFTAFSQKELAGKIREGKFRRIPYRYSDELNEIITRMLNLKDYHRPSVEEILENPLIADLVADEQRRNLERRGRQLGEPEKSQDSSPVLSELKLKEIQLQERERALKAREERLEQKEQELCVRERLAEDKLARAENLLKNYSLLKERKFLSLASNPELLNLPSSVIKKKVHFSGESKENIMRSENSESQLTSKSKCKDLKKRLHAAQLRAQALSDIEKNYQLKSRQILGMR
# [5] = target: T3, Serine/threonine-protein kinase Nek2 (Homo sapiens); conditions: at 1 µM
# [6] = target: T4, Serine/threonine-protein kinase Nek6 (Homo sapiens) (UniProt Q9HC98); conditions: at 0.1 µM
# T4 sequence (whole entry): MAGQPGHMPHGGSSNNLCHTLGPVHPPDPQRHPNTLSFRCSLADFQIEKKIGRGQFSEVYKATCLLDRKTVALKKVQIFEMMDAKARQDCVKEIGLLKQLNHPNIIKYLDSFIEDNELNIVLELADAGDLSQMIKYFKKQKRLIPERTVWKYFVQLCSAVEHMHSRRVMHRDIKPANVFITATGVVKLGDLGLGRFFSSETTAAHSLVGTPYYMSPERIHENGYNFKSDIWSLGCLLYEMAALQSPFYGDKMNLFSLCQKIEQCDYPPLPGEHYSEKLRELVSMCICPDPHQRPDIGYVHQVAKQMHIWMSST
# [7] = target: T4, Serine/threonine-protein kinase Nek6 (Homo sapiens); conditions: at 1 µM
# [8] = target: Serine/threonine-protein kinase Nek7 (Homo sapiens) (UniProt Q8TDX7); conditions: at 0.1 µM
# Sequence of UniProt Q8TDX7 (Q8TDX7 whole entry, looked up): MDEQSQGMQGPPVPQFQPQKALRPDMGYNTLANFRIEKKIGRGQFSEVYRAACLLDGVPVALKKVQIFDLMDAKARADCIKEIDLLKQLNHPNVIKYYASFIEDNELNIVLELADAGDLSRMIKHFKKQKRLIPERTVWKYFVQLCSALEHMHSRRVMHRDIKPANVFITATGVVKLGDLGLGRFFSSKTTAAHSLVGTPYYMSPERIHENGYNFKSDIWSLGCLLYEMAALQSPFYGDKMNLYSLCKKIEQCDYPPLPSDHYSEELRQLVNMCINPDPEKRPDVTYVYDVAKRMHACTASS
# [9] = target: Serine/threonine-protein kinase Nek7 (Homo sapiens) (UniProt Q8TDX7); conditions: at 1 µM
# [10] = target: T5, Serine/threonine-protein kinase Nek9 (Homo sapiens) (UniProt Q8TD19); conditions: at 0.1 µM
# T5 sequence (whole entry): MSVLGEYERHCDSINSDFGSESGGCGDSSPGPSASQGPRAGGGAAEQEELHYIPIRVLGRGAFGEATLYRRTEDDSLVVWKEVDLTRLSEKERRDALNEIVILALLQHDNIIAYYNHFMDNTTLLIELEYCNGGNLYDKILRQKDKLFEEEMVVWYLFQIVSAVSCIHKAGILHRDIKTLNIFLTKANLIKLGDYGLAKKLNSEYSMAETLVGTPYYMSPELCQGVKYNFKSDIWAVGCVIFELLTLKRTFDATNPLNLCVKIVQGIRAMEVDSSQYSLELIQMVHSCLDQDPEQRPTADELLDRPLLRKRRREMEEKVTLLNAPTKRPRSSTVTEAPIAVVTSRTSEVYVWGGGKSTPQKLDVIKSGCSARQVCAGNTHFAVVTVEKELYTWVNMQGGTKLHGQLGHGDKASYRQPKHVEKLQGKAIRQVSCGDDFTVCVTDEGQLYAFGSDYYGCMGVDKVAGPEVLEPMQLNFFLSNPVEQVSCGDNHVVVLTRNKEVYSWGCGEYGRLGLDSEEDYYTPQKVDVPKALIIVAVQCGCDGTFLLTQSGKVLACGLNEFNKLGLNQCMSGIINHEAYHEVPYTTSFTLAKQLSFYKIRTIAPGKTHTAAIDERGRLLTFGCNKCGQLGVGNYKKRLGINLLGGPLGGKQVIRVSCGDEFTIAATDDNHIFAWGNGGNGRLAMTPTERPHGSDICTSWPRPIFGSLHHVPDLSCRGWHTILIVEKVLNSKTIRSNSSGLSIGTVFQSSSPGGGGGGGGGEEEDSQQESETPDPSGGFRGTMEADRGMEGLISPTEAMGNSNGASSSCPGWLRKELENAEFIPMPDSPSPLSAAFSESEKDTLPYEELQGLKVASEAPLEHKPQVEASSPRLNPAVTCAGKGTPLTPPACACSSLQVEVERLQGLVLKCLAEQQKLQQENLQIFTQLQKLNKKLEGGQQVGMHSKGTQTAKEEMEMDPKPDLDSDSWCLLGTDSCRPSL
# [11] = target: T5, Serine/threonine-protein kinase Nek9 (Homo sapiens); conditions: at 1 µM
# [12] = target: Serine/threonine-protein kinase PLK1 (Homo sapiens) (UniProt P53350); conditions: at 0.1 µM
# Sequence of UniProt P53350 (P53350 whole entry): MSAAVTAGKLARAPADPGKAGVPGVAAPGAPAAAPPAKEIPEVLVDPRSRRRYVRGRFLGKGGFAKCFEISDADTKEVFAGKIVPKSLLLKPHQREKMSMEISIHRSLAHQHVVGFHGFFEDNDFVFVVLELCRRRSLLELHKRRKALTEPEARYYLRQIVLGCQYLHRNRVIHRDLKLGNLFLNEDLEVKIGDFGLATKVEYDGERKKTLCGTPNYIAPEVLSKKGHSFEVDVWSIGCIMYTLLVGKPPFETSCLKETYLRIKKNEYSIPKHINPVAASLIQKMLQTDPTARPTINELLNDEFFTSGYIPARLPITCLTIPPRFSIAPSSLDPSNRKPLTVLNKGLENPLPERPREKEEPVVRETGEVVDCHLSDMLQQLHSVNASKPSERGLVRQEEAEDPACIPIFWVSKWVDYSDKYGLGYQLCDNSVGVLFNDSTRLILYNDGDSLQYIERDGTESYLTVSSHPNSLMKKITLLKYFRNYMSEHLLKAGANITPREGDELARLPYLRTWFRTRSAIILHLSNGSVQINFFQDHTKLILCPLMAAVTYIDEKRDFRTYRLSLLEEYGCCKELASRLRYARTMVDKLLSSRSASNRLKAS
# [13] = target: Serine/threonine-protein kinase PLK1 (Homo sapiens) (UniProt P53350); conditions: at 1 µM
# [14] = target: T6, Dual specificity protein kinase TTK (Homo sapiens) (UniProt P33981); conditions: at 0.1 µM
# T6 sequence (whole entry): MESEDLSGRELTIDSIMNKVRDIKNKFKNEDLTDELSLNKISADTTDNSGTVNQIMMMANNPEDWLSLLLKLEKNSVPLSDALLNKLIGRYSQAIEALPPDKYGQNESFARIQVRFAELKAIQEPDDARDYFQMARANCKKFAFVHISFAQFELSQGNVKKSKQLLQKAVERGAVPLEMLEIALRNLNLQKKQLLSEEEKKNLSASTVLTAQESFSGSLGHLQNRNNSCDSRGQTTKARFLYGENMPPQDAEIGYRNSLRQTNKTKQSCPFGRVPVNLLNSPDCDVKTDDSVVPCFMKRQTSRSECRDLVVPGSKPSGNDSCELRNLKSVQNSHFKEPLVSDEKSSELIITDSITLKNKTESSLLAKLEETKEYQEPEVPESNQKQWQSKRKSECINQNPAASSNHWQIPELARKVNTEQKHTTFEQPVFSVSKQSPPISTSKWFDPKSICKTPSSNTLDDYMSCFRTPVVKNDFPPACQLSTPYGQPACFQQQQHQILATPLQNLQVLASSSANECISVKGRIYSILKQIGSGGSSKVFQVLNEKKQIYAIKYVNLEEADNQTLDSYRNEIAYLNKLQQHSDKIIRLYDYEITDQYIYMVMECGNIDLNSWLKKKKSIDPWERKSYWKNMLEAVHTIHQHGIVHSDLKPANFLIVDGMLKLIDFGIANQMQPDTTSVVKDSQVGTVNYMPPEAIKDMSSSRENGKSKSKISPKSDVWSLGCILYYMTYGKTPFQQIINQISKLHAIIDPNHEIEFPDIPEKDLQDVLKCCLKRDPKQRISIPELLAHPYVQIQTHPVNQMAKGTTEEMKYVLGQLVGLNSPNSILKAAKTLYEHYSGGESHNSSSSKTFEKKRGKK
# [15] = tested on: T7, Receptor-type tyrosine-protein kinase FLT3 (Homo sapiens), P36888 [D835Y]; conditions: at 1 µM
# T7 sequence (whole entry): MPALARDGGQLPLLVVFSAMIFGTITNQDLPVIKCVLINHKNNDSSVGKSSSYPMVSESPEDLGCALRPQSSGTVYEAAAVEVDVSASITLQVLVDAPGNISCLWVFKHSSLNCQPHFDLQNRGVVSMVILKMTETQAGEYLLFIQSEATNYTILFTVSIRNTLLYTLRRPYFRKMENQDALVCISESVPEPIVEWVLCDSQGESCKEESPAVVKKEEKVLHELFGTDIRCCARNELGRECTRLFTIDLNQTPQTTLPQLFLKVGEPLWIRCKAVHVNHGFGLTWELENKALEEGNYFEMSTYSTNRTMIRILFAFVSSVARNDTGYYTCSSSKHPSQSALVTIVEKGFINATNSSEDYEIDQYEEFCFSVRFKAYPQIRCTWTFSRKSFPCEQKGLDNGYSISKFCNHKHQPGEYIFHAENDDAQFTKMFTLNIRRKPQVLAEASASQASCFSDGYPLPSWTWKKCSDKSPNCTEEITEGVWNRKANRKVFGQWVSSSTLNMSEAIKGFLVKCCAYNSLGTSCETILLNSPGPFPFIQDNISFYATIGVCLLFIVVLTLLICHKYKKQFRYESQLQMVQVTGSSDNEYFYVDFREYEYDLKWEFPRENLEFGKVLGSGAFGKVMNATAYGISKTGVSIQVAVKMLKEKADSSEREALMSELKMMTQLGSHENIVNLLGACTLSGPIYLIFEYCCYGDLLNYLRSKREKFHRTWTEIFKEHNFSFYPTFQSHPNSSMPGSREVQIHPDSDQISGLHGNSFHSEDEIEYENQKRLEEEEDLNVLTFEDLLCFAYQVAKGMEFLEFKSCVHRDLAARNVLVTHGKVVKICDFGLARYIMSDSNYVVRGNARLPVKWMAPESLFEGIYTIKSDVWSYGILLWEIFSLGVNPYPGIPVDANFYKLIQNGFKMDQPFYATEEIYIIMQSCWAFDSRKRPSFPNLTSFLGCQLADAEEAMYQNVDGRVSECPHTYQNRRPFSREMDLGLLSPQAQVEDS
# [16] = target: Vascular endothelial growth factor receptor 3 (Homo sapiens) (UniProt P35916); conditions: at 0.1 µM
# Sequence of UniProt P35916 (P35916 whole entry): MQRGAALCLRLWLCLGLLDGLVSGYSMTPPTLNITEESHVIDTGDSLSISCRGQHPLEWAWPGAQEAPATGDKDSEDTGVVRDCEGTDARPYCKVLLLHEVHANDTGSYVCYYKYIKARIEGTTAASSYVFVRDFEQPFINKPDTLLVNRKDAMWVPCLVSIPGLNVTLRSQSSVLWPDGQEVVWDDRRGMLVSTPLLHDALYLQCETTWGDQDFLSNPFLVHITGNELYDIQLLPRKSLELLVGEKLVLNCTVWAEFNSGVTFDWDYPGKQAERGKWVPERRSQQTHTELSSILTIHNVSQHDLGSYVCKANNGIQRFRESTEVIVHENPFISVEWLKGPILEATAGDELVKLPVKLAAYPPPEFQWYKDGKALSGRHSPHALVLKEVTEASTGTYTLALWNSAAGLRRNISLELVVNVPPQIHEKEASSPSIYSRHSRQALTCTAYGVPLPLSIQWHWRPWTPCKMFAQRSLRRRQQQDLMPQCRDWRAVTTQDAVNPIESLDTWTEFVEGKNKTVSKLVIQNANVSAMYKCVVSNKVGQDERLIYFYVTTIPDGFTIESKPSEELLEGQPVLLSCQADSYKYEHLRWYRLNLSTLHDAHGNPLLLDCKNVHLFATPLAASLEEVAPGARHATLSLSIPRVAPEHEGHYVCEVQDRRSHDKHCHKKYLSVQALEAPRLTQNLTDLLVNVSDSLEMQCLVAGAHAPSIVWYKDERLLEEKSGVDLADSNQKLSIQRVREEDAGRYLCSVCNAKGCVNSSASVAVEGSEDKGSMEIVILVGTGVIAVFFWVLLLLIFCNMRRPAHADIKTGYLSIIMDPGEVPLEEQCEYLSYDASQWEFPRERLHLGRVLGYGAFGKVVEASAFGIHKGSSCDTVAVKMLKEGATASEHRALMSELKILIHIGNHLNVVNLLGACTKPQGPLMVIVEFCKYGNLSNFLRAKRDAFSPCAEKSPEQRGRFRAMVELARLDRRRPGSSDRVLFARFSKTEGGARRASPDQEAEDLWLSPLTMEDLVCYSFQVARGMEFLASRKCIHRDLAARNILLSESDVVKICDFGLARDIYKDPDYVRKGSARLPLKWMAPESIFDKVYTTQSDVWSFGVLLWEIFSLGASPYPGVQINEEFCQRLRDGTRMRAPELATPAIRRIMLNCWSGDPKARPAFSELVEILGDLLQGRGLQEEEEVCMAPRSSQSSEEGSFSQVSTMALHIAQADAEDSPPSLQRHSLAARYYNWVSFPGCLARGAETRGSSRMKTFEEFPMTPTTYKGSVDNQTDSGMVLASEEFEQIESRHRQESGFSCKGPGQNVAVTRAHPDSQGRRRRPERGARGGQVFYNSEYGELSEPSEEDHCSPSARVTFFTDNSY
# [17] = target: Vascular endothelial growth factor receptor 3 (Homo sapiens) (UniProt P35916); conditions: at 1 µM
# [18] = target: Macrophage colony-stimulating factor 1 receptor (Homo sapiens) (UniProt P07333); conditions: at 0.1 µM
# Sequence of UniProt P07333 (P07333 whole entry): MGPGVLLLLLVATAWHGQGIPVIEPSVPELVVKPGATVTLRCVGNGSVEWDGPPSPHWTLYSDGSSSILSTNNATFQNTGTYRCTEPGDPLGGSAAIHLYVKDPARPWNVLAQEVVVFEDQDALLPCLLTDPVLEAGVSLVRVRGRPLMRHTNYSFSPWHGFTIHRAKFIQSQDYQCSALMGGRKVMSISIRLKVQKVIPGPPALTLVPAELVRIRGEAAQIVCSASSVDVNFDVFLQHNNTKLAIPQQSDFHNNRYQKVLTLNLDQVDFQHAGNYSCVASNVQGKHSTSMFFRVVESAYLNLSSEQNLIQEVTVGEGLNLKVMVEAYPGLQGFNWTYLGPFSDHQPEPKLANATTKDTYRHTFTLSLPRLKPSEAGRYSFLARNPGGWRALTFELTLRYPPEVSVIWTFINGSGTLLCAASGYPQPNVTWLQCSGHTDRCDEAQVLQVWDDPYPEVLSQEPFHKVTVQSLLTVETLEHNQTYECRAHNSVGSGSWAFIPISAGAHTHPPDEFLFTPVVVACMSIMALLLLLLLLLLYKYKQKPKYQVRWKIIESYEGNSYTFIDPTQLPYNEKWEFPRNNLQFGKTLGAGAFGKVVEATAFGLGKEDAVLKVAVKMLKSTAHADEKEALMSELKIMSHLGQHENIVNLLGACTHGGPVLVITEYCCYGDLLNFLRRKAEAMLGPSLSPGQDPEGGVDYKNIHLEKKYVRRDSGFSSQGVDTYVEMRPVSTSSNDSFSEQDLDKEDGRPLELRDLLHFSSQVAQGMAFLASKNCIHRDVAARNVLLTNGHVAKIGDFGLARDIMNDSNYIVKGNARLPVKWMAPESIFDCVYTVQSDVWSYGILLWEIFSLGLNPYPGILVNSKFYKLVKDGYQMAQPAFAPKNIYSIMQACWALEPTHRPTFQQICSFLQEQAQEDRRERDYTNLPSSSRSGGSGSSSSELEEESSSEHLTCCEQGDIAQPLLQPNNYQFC
# [19] = target: Macrophage colony-stimulating factor 1 receptor (Homo sapiens) (UniProt P07333); conditions: at 1 µM
# [20] = target: Tyrosine-protein kinase Fyn (Homo sapiens) (UniProt P06241); conditions: at 0.1 µM
# Sequence of UniProt P06241 (P06241 whole entry, looked up): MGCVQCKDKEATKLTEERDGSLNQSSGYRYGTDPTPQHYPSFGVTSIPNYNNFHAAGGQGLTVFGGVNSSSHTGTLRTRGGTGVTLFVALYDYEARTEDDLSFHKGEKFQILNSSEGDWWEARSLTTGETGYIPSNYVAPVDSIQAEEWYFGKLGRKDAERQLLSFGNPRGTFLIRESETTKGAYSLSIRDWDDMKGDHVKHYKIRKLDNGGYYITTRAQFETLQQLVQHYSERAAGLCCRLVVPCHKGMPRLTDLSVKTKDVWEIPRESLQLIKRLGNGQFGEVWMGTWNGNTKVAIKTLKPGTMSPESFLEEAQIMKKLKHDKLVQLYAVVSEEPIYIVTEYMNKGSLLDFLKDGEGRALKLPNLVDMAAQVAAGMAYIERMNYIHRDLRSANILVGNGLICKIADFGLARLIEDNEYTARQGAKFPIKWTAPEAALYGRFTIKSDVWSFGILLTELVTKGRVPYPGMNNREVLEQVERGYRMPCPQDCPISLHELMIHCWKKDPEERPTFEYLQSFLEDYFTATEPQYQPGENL
structure (smiles),measurement,setting,value
O=C1NC(=O)C(c2cccc([N+](=O)[O-])c2)=C1Nc1cc(Cl)c(O)c(Cl)c1,inhibition,[1],15.2%
same,inhibition,[2],0.27%
same,inhibition,[3],1.19%
same,inhibition,[4],0.69%
same,inhibition,[5],0.86%
same,inhibition,[6],1.25%
same,inhibition,[7],1.08%
same,inhibition,[8],0.57%
same,inhibition,[9],0.43%
same,inhibition,[10],3.72%
same,inhibition,[11],4.74%
same,inhibition,[12],1.85%
same,inhibition,[13],-1.62%
same,inhibition,[14],4.08%
same,inhibition,[15],-1.93%
same,inhibition,[16],0.47%
same,inhibition,[17],2.54%
same,inhibition,[18],0.1%
same,inhibition,[19],27%
same,inhibition,[20],0.08%
